Test results published in a collection of fitness landscapes (doi:10.1016/j.celrep.2020.107928).
Over roughly 81,000 sequences, “one-hybrid fitness for binding parS DNA” has its median near -0.17; the highest 2% begin near 0.51. This is one part of the list.

B1: Caulobacter ParB omega fusion; a variant is named by its letters at X, in order, B8GW30 (parent)
chain: MESVVVGEPGMSEGRRGLGRGLSALLGEVDAAPAQAPGEQLGGSREAPIEILQRNPDQPRRTFREEDLEDLSNSIREKGVLQPILVRPSPDTAGEYQIVAGERAWRAAQRAGLKTVPIMVRELDDLAVLEIGIIENVQRADLNVLEEALSYKVLMEKFERTQENIAQTIGKSXSHVANXMRLLXLPDEVQSYLVSGELTAXHARAIAAAADPVALAKQIIEGGLSVRETEALARKAPNLSAGKSKGGRPPRVKDTDTQALESDLSSVLGLDVSIDHRGSTGTLTITYATLEQLDDLCNRLTRGI

Variants of: B1
Experiment: one-hybrid fitness for binding parS DNA (scaled: cognate 1, non-cognate 0); higher = stronger binding
Settings: with parS DNA site
Procedure, shortened: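 Caulobacter ParB libraries with four specificity codons randomised were screened by bacterial one-hybrid selection in the E. coli USO strain, using a HIS3 reporter whose site lies 19 bp from the promoter. Selection ran for 48 hours at 37°C on M9 lacking histidine, with 0.1 mM IPTG and 5 mM 3-AT. Plasmids were Illumina-sequenced before and after selection, three replicate libraries were pooled, and variants with under 10 reads were dropped. Fitness is the log change in each variant's read ratio to wild type, rescaled against the cognate and non-cognate sites.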

Variant	one-hybrid fitness for binding parS DNA
QSHH	≤ 0.2
RMYT	0.923
QDMG	≤ 0.2
SHTT	≤ 0.2
YGCS	≤ 0.2
QLVE	≤ 0.2
NCRC	≤ 0.2
PWPV	≤ 0.2
MYTK	≤ 0.2
ILTY	≤ 0.2
LHQC	≤ 0.2
MTAG	≤ 0.2
TPDD	≤ 0.2
HDKF	≤ 0.2
TVLP	≤ 0.2
PALA	≤ 0.2
DRHV	≤ 0.2
LAYR	≤ 0.2
QRCK	≤ 0.2
AATY	≤ 0.2
PECE	≤ 0.2
IAHP	≤ 0.2
STCG	≤ 0.2
TCSR	≤ 0.2
DDAC	≤ 0.2

Variant	one-hybrid fitness for binding parS DNA
CLAS	≤ 0.2
CCTG	≤ 0.2
IHQF	≤ 0.2
KMMG	≤ 0.2
IHGS	≤ 0.2
FTKY	≤ 0.2
ENFT	≤ 0.2
TFAG	≤ 0.2
RKTV	≤ 0.2
RRMC	0.625
ETCG	≤ 0.2
LNTG	≤ 0.2
CEYL	≤ 0.2
PNDS	≤ 0.2
RWMT	0.556
QNRG	≤ 0.2
RLDK	≤ 0.2
IGMN	≤ 0.2
VHAV	≤ 0.2
RETM	≤ 0.2
VAMT	≤ 0.2
QAQR	≤ 0.2
RDAR	≤ 0.2
RYSH	≤ 0.2
QHQG	≤ 0.2

Variant	one-hybrid fitness for binding parS DNA
NPQS	≤ 0.2
QCSH	≤ 0.2
QCRH	≤ 0.2
IVFC	≤ 0.2
VQNQ	≤ 0.2
ATYW	≤ 0.2
DRFR	≤ 0.2
MPLG	≤ 0.2
AGVV	≤ 0.2
HAET	≤ 0.2
EDRG	≤ 0.2
MGEV	≤ 0.2
RRHA	0.693
LTIT	≤ 0.2
LFAG	≤ 0.2
WTCM	≤ 0.2
ESNF	≤ 0.2
LAHM	≤ 0.2
PINQ	≤ 0.2
TQYR	≤ 0.2
KKTV	≤ 0.2
ATEK	≤ 0.2
QRRM	≤ 0.2
VEFC	≤ 0.2
MIGT	≤ 0.2

Variant	one-hybrid fitness for binding parS DNA
TYKE	≤ 0.2
GPEA	≤ 0.2
ARTH	≤ 0.2
GSGI	≤ 0.2
LNGW	≤ 0.2
LTAA	≤ 0.2
QSLI	≤ 0.2
RKWK	≤ 0.2
MNTG	≤ 0.2
QNQI	≤ 0.2
QTEK	≤ 0.2
SNRC	≤ 0.2
IPYA	≤ 0.2
FSSI	≤ 0.2
SMNC	≤ 0.2
TQGS	≤ 0.2
QPIP	≤ 0.2
ALHI	≤ 0.2
NWRN	≤ 0.2
RTHI	≤ 0.2
IYPF	≤ 0.2
ERCS	≤ 0.2
REDS	≤ 0.2
DMKP	≤ 0.2
MSEL	≤ 0.2

Variant	one-hybrid fitness for binding parS DNA
AWVP	0.241
NEQG	≤ 0.2
TRQY	≤ 0.2
PVTF	≤ 0.2
QLMV	≤ 0.2
RDYF	≤ 0.2
RMYN	0.47
QCCV	≤ 0.2
LQTQ	≤ 0.2
VDTV	≤ 0.2
LDRW	≤ 0.2
CSPY	≤ 0.2
PVKW	≤ 0.2
ALEI	≤ 0.2
QFWS	≤ 0.2
ECMR	≤ 0.2
EPQD	0.251
WAKS	≤ 0.2
YYRG	≤ 0.2
SRGW	≤ 0.2
EERV	≤ 0.2
NTRL	≤ 0.2
TFDC	≤ 0.2
MVRM	≤ 0.2
TFPV	≤ 0.2

Variant	one-hybrid fitness for binding parS DNA
TTAV	≤ 0.2
LNMS	≤ 0.2
PHRT	≤ 0.2
QIPG	≤ 0.2
HCHP	≤ 0.2
YCTR	≤ 0.2
QPYT	≤ 0.2
GCGR	≤ 0.2
TPHI	≤ 0.2
DFHR	≤ 0.2
SMNS	≤ 0.2
FFAS	≤ 0.2
AFAV	≤ 0.2
GAHL	≤ 0.2
ILTD	≤ 0.2
LLET	≤ 0.2
LFHV	≤ 0.2
KPLV	≤ 0.2
SLAC	≤ 0.2
CIKR	≤ 0.2
NRKC	≤ 0.2
WISE	≤ 0.2
IPQM	≤ 0.2
LGAG	≤ 0.2
TPTR	≤ 0.2

Variant	one-hybrid fitness for binding parS DNA
LMDY	≤ 0.2
TPWR	≤ 0.2
RYAG	0.982
MHQT	≤ 0.2
RYMD	≤ 0.2
YSES	≤ 0.2
RDSR	≤ 0.2
HRHN	≤ 0.2
YPTF	≤ 0.2
PEMA	≤ 0.2
QRYE	≤ 0.2
LGAF	≤ 0.2
ISGT	≤ 0.2
LLGY	≤ 0.2
CTWR	≤ 0.2
SQNK	≤ 0.2
RDWV	≤ 0.2
PTTI	≤ 0.2
QNAE	≤ 0.2
QSKS	≤ 0.2
SHQG	≤ 0.2
RPPP	≤ 0.2
RNMP	≤ 0.2
PIRR	≤ 0.2
GDTV	≤ 0.2

Variant	one-hybrid fitness for binding parS DNA
RIFT	0.834
VSWW	≤ 0.2
YLQS	≤ 0.2
FVPS	≤ 0.2
NGMC	≤ 0.2
FFNC	≤ 0.2
RRQV	≤ 0.2
IVSG	0.263
MAQV	≤ 0.2
SMFG	≤ 0.2
KGIW	≤ 0.2
FWAS	≤ 0.2
WSTK	≤ 0.2
LTRK	≤ 0.2
HWPM	≤ 0.2
MLST	≤ 0.2
RTID	0.203
IAQG	≤ 0.2
AEPQ	≤ 0.2
RQCM	0.349
